The supplement of paper PMC7238544
Where a name gives a salt, the structure may show the parent alone. ± gives the standard deviation of the averaged measurements. The list shows a part of the results.

Assays:
Settings in all cases: priming compound concentration 100 µM
hAMSC donor 1 [1] = assay: Hoechst total cell count ratio vs vehicle control; higher = more cells (less toxicity)
hAMSC donor 2 [2] = assay: as above
hAMSC donor 1 [3] = assay: transgenic luciferase activity (RLU/mg protein) fold change vs vehicle control (ratio); higher = more transgene expression
hAMSC donor 2 [4] = assay: as above
hAMSC donor 1 [5] = assay: transfection efficiency (EGFP+ cells / Hoechst count) fold change vs vehicle control (ratio); hAMSC are human adipose-derived mesenchymal stem cells given an EGFP-luciferase plasmid by lipofection; higher = enhanced transfection
hAMSC donor 2 [6] = assay: as above
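Throughout, for Hoechst total cell count ratio vs vehicle control: compound added 30 min before Lipofectamine 3000 lipoplex delivery, triplicate-well means expressed against DMSO vehicle control wells of the same 96-well plate.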
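Throughout, for transfection efficiency (EGFP+ cells / Hoechst count) fold change vs vehicle control: compounds added 30 min before Lipofectamine 3000 lipoplex transfection, triplicate means relative to DMSO vehicle wells on the same plate, luciferase RLU normalized to BCA total protein.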
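Throughout, for transgenic luciferase activity (RLU/mg protein) fold change vs vehicle control: compounds in DMSO added 30 min before Lipofectamine 3000 transfection of pEGFP-Luc in 96-well plates, values are means of triplicate wells over DMSO vehicle wells on the same plate.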

Row | Compound | Hoechst total cell count ratio (hAMSC donor 1 [1]) | Hoechst total cell count ratio (hAMSC donor 2 [2]) | transgenic luciferase activity (hAMSC donor 1 [3]) | transgenic luciferase activity (hAMSC donor 2 [4]) | transfection efficiency (hAMSC donor 1 [5]) | transfection efficiency (hAMSC donor 2 [6])
1 | O=C1c2c(O)cc(O)cc2O[C@H](c2ccc(O)c(O)c2)[C@H]1O (racemic) [Taxifolin-(+/-)] | 1.14 ± 0.089 | 0.566 ± 0.21 | 1.54 ± 0.22 | 0.584 ± 0.068 | 0.964 ± 0.023 | 0.681 ± 0.3
2 | CCCC(CCC)C(=O)O [Valproic acid] | 1.21 ± 0.28 | 1.59 ± 0.41 | 1.3 ± 0.81 | 1.13 ± 0.26 | 1.05 ± 0.2 | 0.966 ± 0.17
3 | Cc1noc(NS(=O)(=O)c2ccc(N)cc2)c1C [Sulfisoxazole] | 1.22 ± 0.036 | 0.815 ± 0.32 | 0.936 ± 0.21 | 0.493 ± 0.083 | 1.12 ± 0.21 | 1.09 ± 0.22
4 | COc1ccc2[nH]c([S+]([O-])Cc3ncc(C)c(OC)c3C)nc2c1 (stereo not drawn) [Omeprazole] | 1.43 ± 0.23 | 1.18 ± 0.047 | 1.03 ± 0.1 | 0.901 ± 0.11 | 0.763 ± 0.078 | 0.705 ± 0.058
5 | OCCOCCN1CCN(C(c2ccccc2)c2ccc(Cl)cc2)CC1 (stereo not drawn) [Hydroxyzine pamoate] | 1.02 ± 0.12 | 1.24 ± 0.15 | 0.415 ± 0.2 | 0.909 ± 0.067 | 0.67 ± 0.12 | 0.683 ± 0.13
6 | Brc1c(NC2=NCCN2)ccc2nccnc12 [Brimonidine] | 0.869 ± 0.21 | 1.2 ± 0.093 | 8.51 ± 12 | 1.48 ± 0.36 | 1.14 ± 0.21 | 1.23 ± 0.22
7 | O=C(NCC1CCCCN1)c1cc(OCC(F)(F)F)ccc1OCC(F)(F)F (stereo not drawn) [Flecainide hydrochloride] | 1.65 ± 0.18 | 1.06 ± 0.057 | 0.709 ± 0.24 | 0.548 ± 0.031 | 0.75 ± 0.23 | 0.79 ± 0.053
8 | C[C@H]1C[C@H]2[C@@H]3CCC4=CC(=O)C=C[C@]4(C)[C@@]3(Cl)[C@@H](O)C[C@]2(C)[C@@]1(O)C(=O)CO [Beclomethasone] | 1.3 ± 0.15 | 1.97 ± 0.15 | 7.02 ± 3.2 | 4.27 ± 1.3 | 1.1 ± 0.026 | 1.19 ± 0.19
9 | OC[C@H]1O[C@@H](n2cnc3c(N[C@H]4CCC[C@@H]4O)ncnc32)[C@H](O)[C@@H]1O | 1.72 ± 0.41 | 1.5 ± 0.35 | 6.09 ± 0.52 | 0.466 ± 0.028 | 1.27 ± 0.43 | 1.54 ± 0.28
10 | C[C@]12CC[C@@H]3c4ccc(O)cc4CC[C@H]3[C@@H]1CC[C@@H]2O [Beta-estradiol] | 1.09 ± 0.25 | 0.702 ± 0.087 | 0.59 ± 0.62 | 1.01 ± 0.12 | 1.36 ± 0.49 | 1.87 ± 0.41
11 | CC/C(=C(\c1ccccc1)c1ccc(OCCN(C)C)cc1)c1ccccc1 [Tamoxifen] | 0.0503 ± 0.027 | 0.065 ± 0.027 | 0.000882 ± 0.00014 | 0.000715 ± 0.00018 | 0.588 ± 0.7 | 0.147 ± 0.13
12 | OC(CCN1CCCCC1)(c1ccccc1)C1CCCCC1 (stereo not drawn) [Trihexyphenidyl hydrochloride] | 1.21 ± 0.068 | 1.8 ± 0.37 | 1.06 ± 0.23 | 1.76 ± 0.24 | 0.986 ± 0.17 | 0.777 ± 0.094
13 | CCOC(=O)c1ncn2c1CN(C)C(=O)c1cc(F)ccc1-2 [Flumazenil] | 1.17 ± 0.12 | 0.672 ± 0.15 | 0.625 ± 0.17 | 0.748 ± 0.33 | 0.894 ± 0.34 | 1.4 ± 0.24
14 | NS(=O)(=O)c1cc(C2(O)NC(=O)c3ccccc32)ccc1Cl (stereo not drawn) [Chlorthalidone] | 1.42 ± 0.074 | 0.974 ± 0.18 | 1.44 ± 0.8 | 0.82 ± 0.17 | 0.841 ± 0.21 | 1.49 ± 0.18
15 | CNCCC(Oc1ccc(C(F)(F)F)cc1)c1ccccc1 (stereo not drawn) [Fluoxetine hydrochloride] | 0.0733 ± 0.021 | 0.0593 ± 0.017 | 0.00187 ± 0.00021 | 0.000699 ± 0.00012 | 0.596 ± 0.71 | 0.384 ± 0.37
16 | CO[C@H]1/C=C/O[C@@]2(C)Oc3c(C)c(O)c4c(c3C2=O)C2=NC3(CCN(CC(C)C)CC3)NC2=C(NC(=O)/C(C)=C\C=C\[C@H](C)[C@H](O)[C@@H](C)[C@@H](O)[C@@H](C)[C@H](OC(C)=O)[C@@H]1C)C4=O [Rifabutin] | 1.17 ± 0.048 | 1.39 ± 0.35 | 0.166 ± 0.064 | 0.743 ± 0.24 | 0.386 ± 0.09 | 0.31 ± 0.092
17 | Clc1ccc2c(c1)CCc1cccnc1C2=C1CCNCC1 [Desloratadine] | 0.141 ± 0.018 | 0.0413 ± 0.028 | 0.00598 ± 0.0076 | 0.0471 ± 0.05 | 0.816 ± 0.33 | 0.47 ± 0.81
18 | CC1=C(/C=C/C(C)=C/C=C/C(C)=C/C(=O)O)C(C)(C)CCC1 [trans-Retinoic acid] | 0.864 ± 0.0095 | 1.11 ± 0.2 | 0.531 ± 0.22 | 0.737 ± 0.26 | 0.337 ± 0.26 | 0.888 ± 0.19
19 | CC1(C)S[C@@H]2[C@H](NC(=O)[C@H](N)c3ccc(O)cc3)C(=O)N2[C@H]1C(=O)O [Amoxicillin] | 1.31 ± 0.05 | 1.05 ± 0.13 | 0.274 ± 0.2 | 0.762 ± 0.4 | 0.806 ± 0.25 | 1.08 ± 0.28
20 | O=C(O)CCNC(=O)c1ccc(/N=N/c2ccc(O)c(C(=O)O)c2)cc1 [Balsalazide] | 1.09 ± 0.087 | 1.15 ± 0.12 | 2.24 ± 1.1 | 1.48 ± 0.5 | 1.62 ± 0.5 | 1.04 ± 0.23
21 | CCN(CC)CCOC(=O)c1ccc(N)cc1 [Procaine hydrochloride] | 1.13 ± 0.17 | 1.17 ± 0.13 | 1.01 ± 1 | 0.683 ± 0.12 | 1.26 ± 0.072 | 1.41 ± 0.076
22 | Nc1cc(N2CCCCC2)nc(N)[n+]1[O-] [Minoxidil] | 1.1 ± 0.03 | 1.34 ± 0.19 | 0.365 ± 0.3 | 0.722 ± 0.13 | 1.01 ± 0.19 | 0.804 ± 0.11
23 | COc1ccc2[nH]c([S@@+]([O-])Cc3ncc(C)c(OC)c3C)nc2c1 [Esomeprazole magnesium] | 1.9 ± 0.51 | 1.08 ± 0.068 | 1.12 ± 0.46 | 0.863 ± 0.31 | 1.01 ± 0.23 | 0.726 ± 0.043
